From the RNAGym collection of RNA variant scans (doi:10.1093/nar/gkz1192)
The source gives no read counts; variants with many changes may rest on few reads.

B1: CPEB3 Ribozyme (parent)
chain: UAACAGGGGGCCACAGCAGAAGCGUUCACGUCGCAGCCCCUGUCAGAUUCUGGUGAAUCUGCGAAUUCUGCUGUAUAUCUC

Variants of: B1
Assay: self-cleavage, relative activity (ratio to wild type); higher = more cleavage; in vitro, sequencing
Outline: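 Relative activity compares each variant's cleaved/total read fraction with that of the unmutated ribozyme. To get these fractions, barcoded CPEB3 ribozyme libraries from rounds of error-prone PCR were transcribed with T7 RNA polymerase for 5 hours at 37°C and then given 15 min of DNase I treatment before EDTA was added. The RNAs were reverse transcribed with template switching and sequenced on Illumina, and DNA sequencing linked barcodes to variants. A minimum of 5 reads applied, and three batches were averaged.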

Variant | self-cleavage
UAACAGGGGGCCACAGCAGGAGCGUUCACGUCGCAGCCCCUGUCAGAUUCUGGUGAAUCUGCGGAUUCUGCUGUAUAUAUC [A20G A64G C79A] | 1.01
UAACAGGGGGCCACAGCAGGAGCGUUUACGCCGCGGCCCCUGUCGGAUUCUGGUGAAUCAGUGAAUUCUGCUGUAUAUCUC [A20G C27U U31C A35G A45G U60A C62U] | 0.02
UAACAGGGGGCCACAGCAGGAGCGUUCACGUCGCAGCCCCUGUCGGAUUCUGGUGAAUCUGCGAAUCCUGCUGUGUAUCUC [A20G A45G U67C A75G] | 0.42
UAACAGGGGGCCACAGCAGGAGUGUUCACGUCGCAGCCCCUGACAGAUUCUGGUGAAUCCGCGAAUUCUGCUGCAUAUCUC [A20G C23U U43A U60C U74C] | 0.19
UAACAGGGGGCCACAGCAGGAGCGUUCACGUCGCAGCCCCUGUCGGAUUCUGGUGAAUCUGCGAUUUCUGCUGUAUAUCUC [A20G A45G A65U] | 0.13
UAACAGGGGGCCACAGCAGGAGCGUUCACGUCGCAGCCCCUGUCAGGUCCUGGUGAAUCUGCGAAUUCUGCUGUAUAUCUC [A20G A47G U49C] | 0.35
UAACAGGGGGCCACAGCAGGAGCGUUCACGUCGCUGCCCCCGUCAGAUUCUGGUGAAUCUGCGAAUUCUGCUGUAUACCUC [A20G A35U U41C U78C] | 0.38
UAACAGGGGGCCACAGCAGGAGCGUUCACGUCGCAGCCCCUGUCAGAUUCUGGUGUAUCUGCGAAUUCUGCCGUAUAUCUC [A20G A56U U72C] | 0.51
UAACAGGGGGCCACAGCAGGAGCGUUCGCGUCGCAGCCCCUGUCAGAUUCUGGUGAAACUGCGAAUUCUGCAGUAUAUCUC [A20G A28G U58A U72A] | 0.09
UAACAGGGGGCCACAGCAGGAGAGUUCACGUCGCAGCCCCUGUCAGAUUCUGGCGAGUCUCCGAAUACUGCUGUAUAUCUC [A20G C23A U54C A57G G61C U67A] | 0.05
UAACAGGGGGCCACAGCAGGAGCGUUCAAGUCGCAGCCCCUGCCAGAUUCUGGUGAAUCUGCGAAUUCUGCUGUAUAUCUC [A20G C29A U43C] | 0.09
UAACAGGGGGCCACAGCAGGAGCGUUCACGUUGCAGCCCCUGCCAGAUUCUGGUGAAUCUGCGAACUCUGCUGUAUAUCUC [A20G C32U U43C U66C] | 0.09
UAACAGGGGGCCACAGCAGGAGCGUUCACGUCGCGGCCCCCGUCAGAUUCUGGUGGAUCAGCGAAUUCUGCUGUAUAUCUC [A20G A35G U41C A56G U60A] | 0.45
UAACAGGGGGCCACAGCAGGAGCGUUCACGUCGCUGCCCCUGUCAGAUUCUGGUGAAUCUGCGAAUUCUGAUGUAUAUCUC [A20G A35U C71A] | 0.11
UAACAGGGGGCCACAGCAGGAGCGUUCACGUCGCAGCCCCUGUCGGAUUCUGGUGAAUCUGCGAAUUCUGCCGUAUAUCUC [A20G A45G U72C] | 0.75
UAACAGGGGGCCACAGCAGGAGCGUUCAGGUCGCAGCCCCUGUCAGAUUCUGGUGUAUCUGCGAAUUCUGCUGUAUAUCUC [A20G C29G A56U] | 0.07
UAACAGGGGGCCACAGCAGGAGCGUUCACGUCGCAGUCCCUGUCAGAUUGUGGUGAAUCUGCGAUUUCUGCUGUAUAUCUC [A20G C37U C50G A65U] | 0.07

Variant | self-cleavage
UAACAGGGGGCCACAGCAGGAGCGUUCGCGUCGCAGCCCCUGUCAGAUUCUGGCGAAUCUGCGAAUUCUGGUGUAUAUCUC [A20G A28G U54C C71G] | 0.16
UAACAGGGGGCCACAGCAGGAGCGUUCACGUUGCAGCCCCUGUCAGAUUCUGGUGAAUCUGCGAAUCCUGCCGUGUAUCUC [A20G C32U U67C U72C A75G] | 0.13
UAACAGGGGGCCACAGCAGGAGCGUUCACGUCGCAGCCCCUGUCAGUUUCUGGUGAAUCUGCGAAUUCUGCCGUAUAUCUC [A20G A47U U72C] | 0.11
UAACAGGGGGCCACAGCAGGAGCGUUCACGUCGCAGCCCCUGUCAGGUUCUGGUGAAACUGCGAAUUCUGCUGUAUAUCUC [A20G A47G U58A] | 0.37
UAACAGGGGGCCACAGCAGGAGCGUUCACGUCGCAGCCCCUGUCAGGUUCUGGUGAAUCCGCGGAUUCUGCUGUAUAUCUC [A20G A47G U60C A64G] | 0.18
UAACAGGGGGCCACAGCAGGAGCGUUCACGUCGCAGCCCCUGUCAGAUUCUGGUGAAUCUGCGUAUUCUGCUGUAUGUCUC [A20G A64U A77G] | 0.34
UAACAGGGGGCCACAGCAGGAGCGUUCACGUCGCAGCCCCUGUCGGAAUCUGGUGAAUCUGCGAAUUCUGCUGUAUAUCGC [A20G A45G U48A U80G] | 0.03
UAACAGGGGGCCACAGCAGGAGCGUUCGCGUCGCAGCCCCUGUCAGAUUCUGGUGAAUCCGCGAAUUCUGCCGUAUAUCUC [A20G A28G U60C U72C] | 0.11
UAACAGGGGGCCACAGCAGGAGCGUUCACGUCGCAGCCCCUGUCAGUUUCCGGUGAAUCUGCGAAUUCUGCUGUAUAUCUC [A20G A47U U51C] | 0.64
UAACAGGGGGCCACAGCAGGAGCGUUCACGUCGCUGCCCCUGUCAGACUCUGGUGAAUCUGCGAAUUCUGCUGUAUAUCUC [A20G A35U U48C] | 0.1
UAACAGGGGGCCACAGCAGGAGCGUUCUCGUCGCAGCCCCUGUCAGAUUCUGGUGAGUCAGCGAACUCUGCUGUAUAUCUC [A20G A28U A57G U60A U66C] | 0.03
UAACAGGGGGCCACAGCAGGAGCGUUCACGUCGCCGCCCCUGUCAGAUUCUGGUGAAUCUGCGAAUUCUGCUGUAUACCUC [A20G A35C U78C] | 0.51
UAACAGGGGGCCACAGCAGGAGCGUUCACGUCGCAGCCCCUGUCGGAUUCUGGUGAAUCUGCGAAUUCAGCUGUAUAUCUC [A20G A45G U69A] | 0.26
UAACAGGGGGCCACAGCAGGAGCGUUCUCGUCGCAGCCCCUGUCAGAUUCUGGUGGAUCUGCGAACUCUGCUGUAUAUCUC [A20G A28U A56G U66C] | 0.41
UAACAGGGGGCCACAGCAGGAGCGUUCACGUCGCAGCCCCUGUCCGAUUCUGGUGAAUCCGCGAAUUCUGCUGUUUAUCUC [A20G A45C U60C A75U] | 0.32
UAACAGGGGGCCACAGCAGGAGCGUUCACGUCGCAGCCCCUGUCAGAUUCUGGUGGGUCUGCGAAUUCUGCUGUAUGUCUC [A20G A56G A57G A77G] | 0.38
UAACAGGGGGCCACAGCAGGAGCGUUCACGUCGCUGCCCCUGUCAGAUUCUGGUGAAUCUGCGAAUUCCGCUGUAUAUCUC [A20G A35U U69C] | 0.32
